Measurements: PubChem BioAssay AID894 (National Center for Advancing Translational Sciences (NCATS), 2007)
The whole screen tested about 150,000 compounds, of which about 6,500 (4.3%) were called active. The shares of active, inactive and inconclusive entries below differ from those in the screen. The call rests on the fitted dose curve; in most records, active means well fitted inhibition curve with a large enough effect (not every such curve was filed as active); inconclusive means small, poorly fitted or top-dose-only effect, or another doubt; inactive means no such curve, though single readings can be large or run the other way. No potency is given beside an inconclusive call; the fits are too rough.

What follows are compounds tested against 15-hydroxyprostaglandin dehydrogenase [NAD(+)] (Homo sapiens) (UniProt P15428) (assay: qHTS Assay for Inhibitors of HPGD (15-Hydroxyprostaglandin Dehydrogenase)). Conditions: purified HPGD, NADH fluorescence kinetic, PGE2 substrate; activity change, negative = inhibition: active compounds read low.
Summary of the method: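 NADH formation kinetics: reaction with 30 uM PGE2 and 1 mM NAD+ (final), 20 nM enzyme, Tris-HCl pH 8 with Tween 20, after 15 min compound preincubation at room temperature. Fluorescence change, last versus first of five reads.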
On the % scale 0 is the no-effect control and ±100 the full control effect; potency means the concentration at half of the fitted maximal effect; tags describe the fitted curve by direction and shape.

Sequence of UniProt P15428 (P15428 whole entry, looked up): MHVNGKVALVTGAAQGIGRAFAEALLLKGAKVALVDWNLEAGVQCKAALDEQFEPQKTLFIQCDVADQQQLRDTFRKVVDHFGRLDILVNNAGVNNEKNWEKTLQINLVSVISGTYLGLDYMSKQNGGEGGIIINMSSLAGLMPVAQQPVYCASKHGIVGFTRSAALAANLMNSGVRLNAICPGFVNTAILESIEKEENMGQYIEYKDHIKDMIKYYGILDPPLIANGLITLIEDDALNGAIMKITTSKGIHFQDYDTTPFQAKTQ

Row | SMILES | Potency | activity change, negative = inhibition
1 | O=C1OCCN1C(=O)[C@H]1[C@H](c2ccc(F)cc2)C(c2cccc(Cl)c2)=NN1c1ccc(Br)cc1 | inconclusive [inhibitor, partial curve] | –
2 | O=C(Nc1ccc(Cl)cc1)OCCn1nnnc1C(c1ccccc1Cl)N1CCOCC1 (stereo not drawn) | – | inactive: -14.5%
3 | CN1CCN(C(=S)c2ccc(Cl)cc2)CC1 | – | inactive: -6.55%
4 | C[C@]12CCC(=O)C=C1CCC1C2C(=O)C[C@]2(C)C1CC[C@]2(O)C(=O)CO (stereo partly drawn) | – | inactive: -3.8%
5 | CC(=O)Nc1cccc(C(=O)N/N=C/c2ccccc2F)c1 | active: 35.5 µM | –
6 | CNC(=S)N(Cc1ccc2c(c1)OCO2)C1CC(=O)N(c2ccccc2)C1=O (stereo not drawn) | – | inactive: -6.4%
7 | CCOC(=O)N1C=CC=C[C@@H]2[C@@H](N3C(=O)c4ccccc4C3=O)C(=O)N21 | – | inactive: -18.4%
8 | COc1ccc(Br)cc1CNC(=O)C1CCN(S(=O)(=O)N2CCCCC2)CC1 | – | inactive: -7.32%
9 | O=C(O)CCCC(=O)Nc1ccc(C(=O)N2CCCCC2)c(Cl)c1 | active: 0.447 µM | –
10 | Cc1ccc(S(=O)(=O)N2CCN(c3ccc([N+](=O)[O-])c(NCCN4CCOCC4)c3)CC2)cc1 | – | inactive: -11.6%
11 | COCCCNC(=O)c1ccc2c(=O)n(Cc3ccc4c(c3)OCO4)c(=S)[nH]c2c1 | – | inactive: -19%
12 | Cc1nc(N2CCOCC2)c2cc(-c3ccccc3)sc2n1 | inconclusive [inhibitor, partial curve] | –
13 | O=C(NCCO)c1ccc(Cl)c(Cl)c1 | inconclusive [inhibitor, partial curve, poor fit] | –
14 | CC(=O)Nc1cc(C)c(S(C)(=O)=O)c(C)c1 | – | inactive: -2.38%
15 | O=S(=O)(Nc1cccc(-c2cn3cccnc3n2)c1)c1ccc(F)cc1 | inconclusive [inhibitor, partial curve] | –
16 | Clc1ccc2oc(-c3cccnc3NCc3ccccc3)nc2c1 | inconclusive [inhibitor, partial curve] | –
17 | CC(C)(C)NC(=O)NC(=O)COC(=O)c1ccc(OC(F)(F)F)cc1 | inconclusive [inhibitor, full curve, poor fit] | –
18 | CCCCCCCCC1CO1 (stereo not drawn) | – | inactive: -2.22%
19 | COc1cc(NC(=O)c2ccc(Cl)cc2Cl)ccc1-c1cc2ccccc2oc1=O | inconclusive [inhibitor, partial curve] | –

Row | SMILES | Potency | activity change, negative = inhibition
20 | Cc1ccc2c(CSc3nnc(C4CC4)n3N)cc(=O)oc2c1C | inconclusive [inhibitor, partial curve] | –
21 | COc1ccc(N/C=C/C(=O)c2ccc3c(c2)OCO3)cc1OC | – | inactive: -6.62%
22 | COc1ccc(NC(=O)c2sc(SCc3ccccc3)nc2N)cc1 | inconclusive [inhibitor, partial curve] | –
23 | N#Cc1cc2cc3c(cc2nc1N1CCOCC1)OCO3 | inconclusive [inhibitor, partial curve] | –
24 | CC(=O)/C(C#N)=C1\NC(=O)C(Cc2ccccc2Cl)S1 (stereo not drawn) | inconclusive [inhibitor, single point] | –
25 | Cc1ccc(S(=O)(=O)/C(C#N)=C/c2c(N3CC(C)OC(C)C3)nc3ccccn3c2=O)cc1 (stereo not drawn) | active: 14.1 µM | –
26 | Cc1ccccc1-n1c(SCC(=O)N/N=C/c2sccc2C)nc2ccccc2c1=O | – | inactive: -9.66%
27 | O=C(Nc1ccc(-c2nc3ccc(NC(=O)c4cccs4)cc3[nH]2)cc1)c1cccs1 | inconclusive [inhibitor, partial curve] | –
28 | COc1ccc(OC)c(NC(=O)c2cc(S(=O)(=O)NCc3ccco3)ccc2F)c1 | inconclusive [inhibitor, single point] | –
29 | CC(C)c1nnc(NC(=O)c2sc3ccccc3c2Cl)s1 | – | inactive: -20.8%
30 | COc1ccccc1NC(=O)CN1CCN(CC(=O)Nc2ccc(OCc3ccccc3)cc2)CC1 | – | inactive: -6.79%
31 | CCOC(=O)C(=O)C1=C(N2CCOCC2)/C(=C\c2cccc([N+](=O)[O-])c2)CC1 | active: 31.6 µM | –
32 | Cc1cccn2c(=O)c(/C=C(\C#N)C(=O)NCc3ccco3)c(N3CCCC(C)C3)nc12 (stereo not drawn) | active: 15.8 µM | –
33 | CCN(CC)C(=O)COc1cc(C)cc2oc(=O)cc(-c3ccccc3)c12 | inconclusive [inhibitor, partial curve] | –
34 | CC1=CC(C)C2C(=O)N(c3ccccc3)NC(=O)C2C1 (stereo not drawn) | – | inactive: -13.3%
35 | Clc1c(-c2ccccc2)nnn1-c1ccccc1 | – | inactive: -21.6%
36 | COc1cccc2cc(C(=O)N3CCCCC3C)c(=O)oc12 (stereo not drawn) | active: 15.8 µM | –
37 | Cc1ccc(OC(=O)C2c3ccccc3Oc3ccccc32)cc1C | – | inactive: -15.2%
38 | Cc1ccc(/C=C/C(=O)Nc2nnc(C)s2)o1 | inconclusive [inhibitor, partial curve, poor fit] | –
